Data as given in patent US12447159B2 (AELIS FARMA, priority 2018, dated 2025).

Columns and labels:
[1] = target: T1, human CB1 (hCB1) receptor (Homo sapiens, UniProt P21554); experiment: THC-induced increase in MAPK phosphorylation, HEK-293 cells stably transfected with hCB1 (western blot, P-MAPK/CoxIV); format: cell-based; conditions: THC 1 μM, 5 min; HEK-293 stably expressing the hCB1
T1 construct: expressed in transfected cells; host or cells: HEK-293
Experimental: The difference in the concentrations of THC used in the two experiments is related to the different efficiency of transfection of hCB1 cDNA plasmid, which is stable in Experiment 1 and transient in Experiment 2.
MAPK phosphorylation (P-Erk1/2MAPK proteins) was measured by western blot. In experiment 1 the mitochondrial marker CoxIV and in experiment 2 the un-phosphorylated MAPK proteins were used as loading controls. The P-MAPK/CoxIV and P-MAPK/MAPK ratios were calculated and the data expressed as % of vehicle-treated cells.

[2] = tested on: THC-induced impairment of pre-pulse inhibition; experiment: THC-induced impairment of pre-pulse inhibition (PPI); format: in vivo; conditions: per os 3 h before THC 10 mg/kg; mice
Experimental: PPI was measured using automated PPI cages allowing the automatic PPI protocol delivery and the recording of the animal's startle reactions. Each mouse (at least n=8 per group) was placed in the PPI test 60 minutes post-THC for 45 minutes.
The PPI test included different types of trials consisting in the presentation of either the background noise, the startle stimulus (S; 120 dB) alone, one of the prepulse (73 dB, 76 dB or 82 dB) stimuli alone or a combination of one of each prepulse stimulus followed by the startle stimulus (PPI-S). The startle response following the pulse presentation was recorded and an index of PPI was calculated (% PPI=100×(S−PPI-S)/S).

[3] = tested on: THC-induced dopamine release in the nucleus accumbens; experiment: THC-induced dopamine release in the nucleus accumbens (microdialysis); format: in vivo; conditions: per os; THC 1 mg/kg ip; rats
Experimental: THC was solubilized in 0.9% NaCl containing ethanol (2%) and Tween80 (2%) that was also used as control vehicle (VEHTHC) and administered intraperitoneally in a volume of 1 ml/kg.
Rats (n=5-7 per group) were implanted under anesthesia with a guide-cannula just above the shell sub-regions of the right Nac. […] Dialysates were collected every 15 minutes. 180 minutes after the beginning of the perfusion, all animals received an injection of THC. DA outflow was then monitored for 120 minutes. The concentrations of DA in dialysate samples were analyzed by reverse-phase high-performance liquid chromatography (HPLC) coupled with electrochemical detection, as described previously (Leggio et al., 2009). DA content in each sample was expressed as the percentage of the average baseline level calculated from the three fractions preceding THC administration. The area under the curve (AUC) was calculated for each group from sampling time 0 min to 60 min after THC injection.

[4] = tested on: intravenous self-administration of WIN 55,212-2; experiment: Intravenous self-administration of the CB1 agonist WIN 55,212-2; format: in vivo; conditions: per os 3 h before session; WIN 12.5 μg/kg/infusion iv; mice
Experimental: Before the start of the self-administration sessions, mice were implanted under anesthesia with catheters into the right jugular vein. […] When the animal inserted its nose (nose poke) in the active hole, it received an iv infusion of WIN (12.5 μg/kg). Mice were trained under a fixed ratio 1 (FRI) schedule of reinforcement.
Two hour daily self-administration sessions were conducted 6 days per week for 19 days. Mice received corn oil vehicle (2 ml/kg) per os on day 9 and 10 to be habituated to the oral gavage procedure.

[5] = tested on: intravenous self-administration of THC; experiment: Intravenous self-administration of THC in non-human primates; format: in vivo, Squirrel monkeys (Saimiri Sciureus); conditions: per os 4 h before testing; THC 4 μg/kg/injection iv, FR10; monkeys
Experimental: (§1) Four male Squirrel monkeys (Saimiri Sciureus) were used because they are the species in which THC self-administration can be the most reliably studied.
Monkeys were trained to lever-press to get an intravenous (iv) injection of THC (4 μg/kg/injection) under a ten-response fixed-ratio schedule of drug injection (FR10, each 10th response on the lever produced an injection of THC).
Number of lever presses and number of injections per session were recorded. Response rates are calculated based on available session time for responding (i.e., timeout time is subtracted). Statistics are performed for number of injections and response rates per session using either one-way or two-way repeated measures ANOVA with the THC dose or the time as factors.

[6] = tested on: reinstatement of THC-seeking; experiment: THC priming-induced reinstatement of THC-seeking in non-human primates; format: in vivo, Squirrel monkeys (Saimiri Sciureus); conditions: per os 4 h before testing; THC priming 0.04 mg/kg iv; monkeys
Description: as §1
The monkeys used in the previous experiments underwent daily extinction sessions during which lever-presses led to vehicle infusions plus the visual cues previously paired with THC infusions, but not THC. […] THC priming injections were given immediately before the start of the test sessions. During testing, lever-presses (FR10) continued to produce only vehicle injections and the discrete cues.

conscious dogs = experiment: Blood pressure, heart rate, electrocardiogram and body temperature in conscious dogs (telemetry, GLP)
Experimental: The study was carried out following general requirements of GLP and the study design follows the ICH S7A guideline (2001) for Safety Pharmacology.
The study involved 4 male Beagle which were previously instrumented with telemetry transmitters for arterial blood pressure, body temperature and electrocardiogram measurements.
The study was conducted in two parts. […] Telemetry measurements of arterial blood pressure, heart rate, body temperature and electrocardiogram (epicardial Lead II) started at least 2 hours before each dosing and continued for at least 24 hours after dosing.

[7] = Metabolic profiling of [3H]-3pMBP in plasma and excreta in the rat (Radio-HPLC); format: in vivo
Experimental: The metabolic profile was evaluated in plasma, in urines and feces and the radio-labelled metabolites were identified by their retention time using Radio-HPLC analysis. The results are expressed as % of the sum of all the detected peak areas.

OCT2 = OCT2 (Homo sapiens, UniProt O15244); experiment: Cellular transporter inhibition, CHO cells (fluorometry); conditions: 10 μM
[8] = tested on: THC-induced psychomotor stimulation; experiment: THC-induced increase in psychomotor stimulation (open field locomotion); conditions: per os 3 h before THC 0.3 mg/kg; mice
[9] = tested on: THC-induced impairment of working memory; experiment: THC-induced impairment of working memory (delayed matching-to-place Morris water maze); conditions: per os 3 h before THC 5 mg/kg ip; mice

T1 sequence (P21554 whole entry): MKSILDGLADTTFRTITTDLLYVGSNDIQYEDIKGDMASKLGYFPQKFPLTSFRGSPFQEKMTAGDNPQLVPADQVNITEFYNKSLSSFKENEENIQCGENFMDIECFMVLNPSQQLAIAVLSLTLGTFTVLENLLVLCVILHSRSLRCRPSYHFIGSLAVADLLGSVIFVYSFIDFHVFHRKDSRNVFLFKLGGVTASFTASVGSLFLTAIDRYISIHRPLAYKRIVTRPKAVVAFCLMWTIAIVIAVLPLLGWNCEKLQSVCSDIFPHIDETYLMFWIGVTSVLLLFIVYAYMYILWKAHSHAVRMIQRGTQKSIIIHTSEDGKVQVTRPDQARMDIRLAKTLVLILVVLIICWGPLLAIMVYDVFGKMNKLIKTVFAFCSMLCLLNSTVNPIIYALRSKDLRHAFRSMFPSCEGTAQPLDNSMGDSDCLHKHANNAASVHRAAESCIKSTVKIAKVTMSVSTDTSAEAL
Chain of OCT2 (O15244 whole entry): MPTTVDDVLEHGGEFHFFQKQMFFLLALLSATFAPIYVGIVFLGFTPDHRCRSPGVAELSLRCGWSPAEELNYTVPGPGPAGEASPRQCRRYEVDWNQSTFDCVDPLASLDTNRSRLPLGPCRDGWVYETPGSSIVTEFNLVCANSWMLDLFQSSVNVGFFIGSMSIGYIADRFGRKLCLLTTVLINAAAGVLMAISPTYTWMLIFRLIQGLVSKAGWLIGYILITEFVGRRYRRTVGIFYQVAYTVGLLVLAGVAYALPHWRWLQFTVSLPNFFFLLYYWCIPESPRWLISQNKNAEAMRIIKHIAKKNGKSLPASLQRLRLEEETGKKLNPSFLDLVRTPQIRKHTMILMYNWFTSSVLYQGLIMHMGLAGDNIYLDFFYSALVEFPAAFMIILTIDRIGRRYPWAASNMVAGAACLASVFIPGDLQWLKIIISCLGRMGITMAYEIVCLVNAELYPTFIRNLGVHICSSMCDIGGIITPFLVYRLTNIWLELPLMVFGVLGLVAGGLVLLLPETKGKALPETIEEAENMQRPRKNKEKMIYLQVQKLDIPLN

COc1ccc(CO[C@H]2CC[C@@]3(C)C(=CC[C@H]4[C@@H]5CC[C@H](C(C)=O)[C@@]5(C)CC[C@@H]43)C2)cc1 [3pMBP, 3β-(4-methoxybenzyloxy)pregn-5-en-20-one]
% inhibition [1]: 60% | ID100 [1]: 10 nM | % inhibition [2]: 100% | ID50 [2]: 4.5 µg/kg | ID100 [2]: 15 µg/kg | ID50 [3]: 5 µg/kg | ID100 [3]: 15 µg/kg | % inhibition [4]: 80% | ID50 [4]: 5 µg/kg | ID100 [4]: 15 µg/kg | ID50 [5]: 5 µg/kg | ID100 [5]: 15 µg/kg | % inhibition [6]: 80% | ID50 [6]: <1.5 µg/kg | ID100 [6]: ≤ 1.5 µg/kg | Heart rate high frequency rhythms and heart rate variability (conscious dogs; 9 mg/kg only, dog): decrease in heart rate high frequency rhythms and oscillations associated with a decrease in heart rate variability | Blood pressure, heart rate, electrocardiogram and body temperature (conscious dogs; 2, 9 and 36 mg/kg, single oral): did not modify | 3pMBP peak, % of all integrated peaks ([7]; rat plasma, 3 h post oral administration): 100% | 3pMBP peak, % of all integrated peaks ([7]; rat plasma, 6 h post oral administration): 78% | Presence of 3pMBP in the plasma ([7]; rat plasma, 24 hours): not present | 3pMBP peak, % of integrated peaks ([7]; rat urine, 0-6-hour interval): ≈ 30% | Presence of 3pMBP in the urine ([7]; rat urine, 6-24 h and 24-48 h): no 3pMBP was detected | 3pMBP detected in the urine ([7]; rat urine, each time interval): < 0.5 % dose | Activity of OCT2 (OCT2): did not modify the activity | % inhibition [8]: 100% | ID50 [8]: 0.36 µg/kg | ID100 [8]: 1.5 µg/kg | % inhibition [9]: 100% | ID100 [9]: 150 µg/kg
